# Test results from the supplement of paper PMC9174493.
# Some of the results follow. Single values of this set are uncertain. Values with irradiation are relative to irradiated vehicle.
# How the values were obtained:
# A549-Dual [1] = assay: NF-kB reporter (SEAP) activity, viability-corrected, relative to vehicle (fold change vs vehicle); higher = more activation of STING-IRF / NF-kB immune response reporter; details: 10 µM
# A549-Dual [2] = assay: ISRE reporter (Lucia luciferase) activity, viability-corrected, relative to vehicle (fold change vs vehicle); higher = more activation of STING-IRF / NF-kB immune response reporter; details: 10 µM
# 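Throughout, for NF-kB reporter (SEAP) activity, viability-corrected, relative to vehicle: viability correction based on the alamar blue assay, with concentrations leaving 10% survival or less dropped.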
Structure (SMILES),NF-kB reporter (A549-Dual [1]; irradiation: 8 Gy/4 fr),NF-kB reporter (A549-Dual [1]; irradiation: none),ISRE reporter (A549-Dual [2]; irradiation: 8 Gy/4 fr),ISRE reporter (A549-Dual [2]; irradiation: none)
Cc1cn(C2C=CC(CO)O2)c(=O)[nH]c1=O (centres undefined) [Stavudine (d4T)],0.706,0.9,0.707,0.685
CN1CC2c3ccccc3Oc3ccc(Cl)cc3C2C1.O=C(O)/C=C\C(=O)O (centres undefined) [Asenapine maleate],0.597,0.94,0.934,1.21
CCOC(=O)C(N)Cc1ccc(-c2cc(OC(c3ccc(Cl)cc3-n3ccc(C)n3)C(F)(F)F)nc(N)n2)cc1.O=C(O)CNC(=O)c1ccccc1 (centres undefined) [Telotristat Etiprate (LX 1606 Hippurate)],0.732,1.24,0.683,0.877
CO/N=C(/C(=O)NC1C(=O)N2C(C(=O)O)=C(CSC(=O)c3ccco3)CSC12)c1csc(N)n1.Cl (centres undefined) [Ceftiofur HCl],0.683,1.08,0.71,0.864
"CC1=CC(=O)C2CC1C2(C)C (single isomer, unassigned; (-)) [(-)-Verbenone]",0.825,0.656,0.715,0.468
Cl.N/N=c1\[nH]ncc2ccccc12 [Hydralazine HCl],1.17,1.63,0.752,1.29
COc1cc(C)c(/C=C/C(C)=C/C=C/C(C)=C/C(=O)O)c(C)c1C [Acitretin],0.725,0.746,0.696,0.724
N=C(N)NCCN1CCCCCCC1.O=S(=O)(O)O [Guanethidine Monosulfate],0.766,0.807,0.748,0.73
"C=C1C2CCC3C2C(C)(C)CCCC13C (single isomer, unassigned; (+)) [(+)-Longifolene]",1.16,0.963,1.09,1.07
CCN1C(=O)NC(c2ccccc2)C1=O (centres undefined) [Ethotoin],0.705,1.01,0.62,0.595
CC(CN(C)C)CN1c2ccccc2Sc2ccccc21.CC(CN(C)C)CN1c2ccccc2Sc2ccccc21.O=C(O)C(O)C(O)C(=O)O (centres undefined) [Alimemazine Tartrate],0.716,0.617,0.826,1.02
COc1ccc(-n2nc(C(N)=O)c3c2C(=O)N(c2ccc(N4CCCCC4=O)cc2)CC3)cc1 [Apixaban],0.722,0.876,0.744,0.793
CC(=O)CC/C=C(\C)CC/C=C(\C)CC/C=C(\C)CCC=C(C)C [Teprenone],0.612,0.736,0.494,0.439
NC(=O)c1ccc[n+](C2OC(COP(=O)([O-])OP(=O)(O)OCC3OC(n4cnc5c(N)ncnc54)C(O)C3O)C(O)C2O)c1 (centres undefined),0.442,0.494,0.0738,0.151
NCC1OC(OC2C(CO)OC(OC3C(O)C(N)CC(N)C3OC3OC(CO)C(O)C(O)C3N)C2O)C(N)C(O)C1O.O=S(=O)(O)O (centres undefined) [Paromomycin Sulfate],0.762,0.92,0.796,0.933
CC(=O)CCCCn1c(=O)c2c(ncn2C)n(C)c1=O [Pentoxifylline],1.07,1.01,0.938,0.648
Cc1cccc(Nc2ccncc2S(=O)(=O)NC(=O)NC(C)C)c1 [Torsemide],0.785,0.976,0.908,0.857
OB1OCc2cc(F)ccc21 [Tavaborole (AN-2690)],0.895,1.02,0.524,0.499
COc1cc(-c2oc3cc(O)cc(O)c3c(=O)c2O)ccc1O [Isorhamnetin],0.401,0.526,0.209,0.203
CCCCCCCCOc1ccccc1C(=O)Nc1ccc(C(=O)OCC[N+](C)(CC)CC)cc1.[Br-] [Otilonium Bromide],0.62,0.834,0.564,0.871
CCC(C)C(=O)OC1CCC=C2C=CC(C)C(CCC3CC(O)CC(=O)O3)C21 (centres undefined) [Mevastatin],1.61,2.59,0.386,1.26
CC(C)(C)NCC(O)COc1nsnc1N1CCOCC1.O=C(O)/C=C\C(=O)O (centres undefined) [Timolol Maleate],0.669,1.13,0.663,0.716
CCOC(N)=O [Urethane],0.704,1.19,0.679,0.692
COC(=O)Nc1nc2ccc(S(=O)c3ccccc3)cc2[nH]1 (centres undefined) [Oxfendazole],0.794,1.68,0.7,2.24
CC(=O)NC1C(O)CC(O)(C(=O)O)OC1C(O)C(O)CO (centres undefined) [N-Acetylneuraminic acid],0.678,1.42,0.669,0.862
CCCCCCCCCC(=O)NC1C(Oc2c3cc4cc2Oc2ccc(cc2Cl)C(OC2OC(CO)C(O)C(O)C2NC(C)=O)C2NC(=O)C(NC(=O)C4NC(=O)C4NC(=O)C(Cc5ccc(c(Cl)c5)O3)NC(=O)C(N)c3ccc(O)c(c3)Oc3cc(O)cc4c3)c3ccc(O)c(c3)-c3c(OC4OC(CO)C(O)C(O)C4O)cc(O)cc3C(C(=O)O)NC2=O)OC(CO)C(O)C1O (centres undefined) [Teicoplanin],0.729,0.828,0.762,0.945
